# Source: the RNAGym collection of RNA variant scans (doi:10.7554/elife.90254)
# The source gives no read counts; variants with many changes may rest on few reads.
# B1: OR4K15 (parent)
# chain: GUUAACGGUCAUAGGCCAUGGAAACUAGGAGCACCAUUUCGCUGCCAGUGAAGAAAUGAACAAAGAAAAUCUGGGCCAGGCAGGCAUCAAAAGAAAUAGUCUUGCGCUCAACCAGAAAGUCUGUAAUCAUUUUAAGGGUA
# Variants of: B1
# Experiment: self-cleavage, relative activity (ratio to wild type); higher = more cleavage; in vitro, sequencing; the parent is a self-cleaving ribozyme
row,Variant,self-cleavage
1,U2C A24G U43A A63G U72A A140G,0.64
2,A23G U37C A54G U72C A82G,0.16
3,A11C U19C A64G A66G,1.58
4,A24G U37C A64U,1.19
5,U9G A51G A69G,1.04
6,U9C A11G A23G A54G A67G,1.17
7,A22G U38C U49C G79U,0.12
8,A91U A95G U108C A116G A118G,0
9,U87C A126G U131C,0.9
10,U2C C61U U130C,0.14
11,A24G A27G A66G,0.24
12,U19C G20A A51G,2.34
13,A5G A89G U97C A110G U120G,0.09
14,A5U U9C U72C A91G A92G,0.28
15,A62U U100C A116U C128A,0.49
16,A33G A69G G84U A117G A129G,0.03
17,C32U A125G U130C,0.23
18,A54G U72C A90G U133C,0.26
19,A23G U43C A60G,0.22
20,A36G U38C A47G A78U,0.53
21,A52G U72A A91G,0.1
22,G7A U9A A82G C85U C109U,0.2
23,A66U A86U U87C A114U U130C,0.01
24,C40A A59U A118G,0.4

row,Variant,self-cleavage
1,A22G U57C U72C U122A,0.13
2,A18U A67G U72G,0.33
3,U49C C61U A94G U100C A126G U132C,2.48
4,A54G A62U G123A,2.25
5,C61U A63G U124A,0.51
6,A23G A91U U102C A114G,0.69
7,G44C A78G G137A,0.16
8,A18G A62G A64G A126G,0.32
9,A56U A69G A96G A140G,1.81
10,A67G U100C A125G,1.03
11,U43A A54G A56G U70C,1.07
12,U43G A89G A140U,2.22
13,U2A A18G A125G,1.06
14,A5G A64G U139A,0.94
15,A11G A117G A129U,0.86
16,A33G A60G U108G,0.03
17,U39C A59G G106A,0
18,U2G A52G A56G C101G,0.18
19,U12A G14A A30G A82G U132C,0.19
20,A64G U72C C113U A129G,0.02
21,U9C U38A U39C A135U,1.99
22,A96G U103C A114U,0
23,U12C A68G U100A,1.51
24,A23U A51G A95G,1.03

row,Variant,self-cleavage
1,A51G A126G A140U,1.59
2,A18G A22U A66G A126G,1.26
3,A24G A118G U120A U131G,0.35
4,A60G A66G U87C U122C,0.92
5,A54G A60U A91G,0.61
6,A23G A59G U122A,0.65
7,A22G U43A A89G A118U,0.63
8,U26C A66G C77U,1.98
9,U100C U127C G137U,1.5
10,U9C G28A U39C C71A,0.68
11,U39C A59G A92G A111G,0.01
12,A27G A51G A78U,0.53
13,A18G A66U C107A,0.01
14,A63U U103C U131C,0.63
15,U72A U103C U120A,0.06
16,C6A U19C U43C A118G,0.42
17,U19C U37C A47G A52G A96G U108C,0.02
18,U2C A30G A52G,2.06
19,A18G A52G U72C G73A,0.19
20,G20U A66G A86U,1.46
21,A60G A67G A117G U127C,0
22,U108C A111U A126G,0
23,A33U U87C A135U,2.63
24,A52U A62C A90U A92G A111G,0.04

row,Variant,self-cleavage
1,U49C U57C A86G,0.82
2,A11G C71U U131C,0.07
3,A36U U39A A52G,1.29
4,A23G G41U U122G,1.82
5,A78G A114U A118C,0.01
6,A96U A135U A140U,1.58
7,U49C A66U A78U,0.22
8,A18G G53A A62G,1.24
9,G44U A55G A111G U124A,0.03
10,G8A A82G A114G A125G A129G,0.01
11,A24C A68U A69G U87C A92G,0.55
12,A30G U72C A91G U100C U103C U132C,0.17
13,A18G A27U A91G,0.54
14,A36G A55U A111U U122A,0.03
15,U38C A89G A92G,1.91
16,A91G A117U U122A U139C,0.34
17,U49A A52G A96G U102C,2.02
18,G8A U49C U102C,2.53
19,A51G A59U A114U,0.11
20,A98G U103C A111G,0.02
21,U39C A64G A98G,1.2
22,U9C A82U U108G,0.06
23,A33G A66G C105U U132A,0.13
24,A98U U108C U132C,0.01

row,Variant,self-cleavage
1,A64G U87C A111G,0.04
2,A5G A30G A33U A78C A95C,0.26
3,G31A G41A U132C,1.63
4,U3C G28U U39A A59G G79A,0.15
5,A24G A60U U131C,1.03
6,A30G U87C U108A,0.02
7,U39C A96G U120C,0.48
8,U3C U108A A116G U124G U132C,0.01
9,G14A A22G A30G A66G A110G,0.12
10,A66G A92G U127A G137A,1.9
11,U12C A23U U37C A126G A140U,0.72
12,U37C U103C U132C,0.86
13,C71A A92G U130C,0.15
14,G1U U43C A51U,2.2
15,A23G U49C U131C,1.16
16,U39C G50A A78G U132C,0.23
17,U37C A86G A94G,0.79
18,A24G A51U G119A,1.71
19,U43A A82U A118G A135G,0.1
20,U2G U9C A11G A66G A98G A110U A126G,0.53
21,U9C U19A A52U A66G A67U A116U C128A,0.3
22,U38C U100A U132C,0.58
23,A54G A82G A110G U127A,0.17
24,U37C A69G G115A,0.02

row,Variant,self-cleavage
1,U26A U37C A82G,0.56
2,A82G A90G A91G A117G,0.3
3,U3A A54U A60G A98G U122C,0.15
4,A11G A22G A140G,0.41
5,A18G U39C A94U,1.3
6,U19A A36G A111U,0.15
7,A95G A117G A125G,1.07
8,A22U A24G A92G U122A,1.62
9,A55U A60G A64G,0.6
10,A24G A60G A82G A95G A116G,0.12
11,U39C A60G A94G A126G,1.35
12,A33G A117G U122C,0.62
13,U38A A51G A63G A64U U103C A117G G119A,1.55
14,U38C U43C U108A,0.01
15,U2A A5G A135G,1.2
16,U26C C35U A67G,1
17,A96G U100C U120C,2.53
18,A22G A60G U120C U130A,1.1
19,U26C U43A A98G,0.85
20,U19G U108C A117G,0.01
21,A18G A60U A86G A118G A126G,1.13
22,A5C U37C A47U U49C A114G,0.14
23,A18U U49G A118G U127C,0.21
24,A30C A63G U87C A94U,1.94

row,Variant,self-cleavage
1,A5U A69C A91G,0.85
2,A90G A96U C113U A129G,0.01
3,A5U A52U U72C A118U,0.17
4,A30U C35A A111U A117G U131C,0.09
5,A5U U9A A22U A67G,1.37
6,A13G C46U A111G A140G,0.06
7,A33U G73A A110C,0.04
8,G1A A60G U72C G75A,0.51
9,A22G A67G G83A A95G,0.37
10,A47G U72A U132A,0.26
11,U9A A18G U49C A55G G74U A135U,0.18
12,A23G U103C A111G,0.01
13,C40A A56G A62C G83A A86U,1.43
14,U2C A18G U43C A56G,0.69
15,U43A A47U U130C,0.95
16,U3C A51U A92G U102C C105A,0.05
17,A4G U43A A55G,1.28
18,A68G A69U U127C,0.83
19,A55G A67G A98G,0.46
20,A78U U108C U122C,0.01
21,U49C A69G A78C U87A A96U,0.18
22,G7A U49C A118G A140G,1.92
23,U38C G58A U132C,1.44
